According to the supplement of paper PMC7238544:
Where a name gives a salt, the structure may show the parent alone. ± gives the standard deviation of the averaged measurements. The list shows a part of the results.

test system: hAMSC donor 1; assay: Hoechst total cell count ratio vs vehicle control; hAMSC are human adipose-derived mesenchymal stem cells given an EGFP-luciferase plasmid by lipofection; higher = more cells (less toxicity); details: priming compound concentration 100 µM
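Also: compound added 30 min before Lipofectamine 3000 lipoplex delivery, triplicate-well means expressed against DMSO vehicle control wells of the same 96-well plate.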

Compound	Hoechst total cell count ratio
O=C(O)c1cc(=O)c2c(OCC(O)COc3cccc4oc(C(=O)O)cc(=O)c34)cccc2o1 [Cromolyn sodium]	1.41 ± 0.016
CC(C)C[C@@H](NC(=O)OCC1c2ccccc2-c2ccccc21)C(=O)O [N-Fmoc-D-leucine]	1.101 ± 0.011
CN1CCN(C2=Nc3cc(Cl)ccc3Nc3ccccc32)CC1 [Clozapine]	1.5 ± 0.24
CN(C)CC[C@@H](c1ccc(Br)cc1)c1ccccn1 [Dexbrompheniramine maleate]	1.59 ± 0.074
CNCCCC12CCC(c3ccccc31)c1ccccc12 [Maprotiline hydrochloride]	0.267 ± 0.036
CC12CC3CC(C)(C1)CC(N)(C3)C2 [Memantine hydrochloride]	1.94 ± 0.26
COc1cc(OC)c(C(=O)CCCN2CCCC2)c(OC)c1 [Buflomedil hydrochloride]	1.55 ± 0.1
CC(=O)CC(c1ccccc1)c1c(O)c2ccccc2oc1=O (configuration not stated) [Warfarin sodium]	1.66 ± 0.088
CN(C)CCCN1c2ccccc2CCc2ccccc21 [Imipramine hydrochloride]	1.52 ± 0.22
C[C@@H]1C[C@H]2[C@@H]3CCC4=CC(=O)C=C[C@]4(C)[C@@]3(F)[C@@H](O)C[C@]2(C)[C@@]1(O)C(=O)COP(=O)(O)O [Dexamethasone sodium phosphate]	1.37 ± 0.04
Cc1ccc(C)c(OCCCC(C)(C)C(=O)O)c1 [Gemfibrozil]	1.44 ± 0.4
O=C1CCC(N2C(=O)c3ccccc3C2=O)C(=O)N1 (configuration not stated) [Thalidomide]	1.49 ± 0.12
O=C1CCc2cc(OCCCCc3nnnn3C3CCCCC3)ccc2N1 [Cilostazol]	1.37 ± 0.051
CO/N=C(\C(=O)N[C@@H]1C(=O)N2C(C(=O)O)=C(COC(N)=O)CS[C@H]12)c1ccco1 [Cefuroxime]	1.28 ± 0.085
CNCC(O)c1ccc(O)c(O)c1 (configuration not stated) [Racepinephrine]	1.42 ± 0.089
Clc1ccc2c(c1)C(N1CCNCC1)=Nc1ccccc1O2 [Amoxapine]	0.102 ± 0.041

Compound	Hoechst total cell count ratio
CC[C@H]1OC(=O)[C@H](C)[C@@H](O[C@H]2C[C@@](C)(OC)[C@@H](O)[C@H](C)O2)[C@H](C)[C@@H](O[C@@H]2O[C@H](C)C[C@H](N(C)C)[C@H]2O)[C@](C)(O)C[C@@H](C)C(=O)[C@H](C)[C@@H](O)[C@]1(C)O [Erythromycin]	1.46 ± 0.065
CO[C@H]1/C=C/O[C@@]2(C)Oc3c(C)c(O)c4c(O)c(c(/C=N/N5CCN(C)CC5)c(O)c4c3C2=O)NC(=O)/C(C)=C\C=C\[C@H](C)[C@H](O)[C@@H](C)[C@@H](O)[C@@H](C)[C@H](OC(C)=O)[C@@H]1C [Rifampicin]	2.32 ± 0.11
COC1=CC(=O)C[C@@H](C)[C@]12Oc1c(Cl)c(OC)cc(OC)c1C2=O [Griseofulvin]	1.55 ± 0.038
NC(=O)c1cnccn1 [Pyrazinamide]	0.984 ± 0.04
Cc1cccc(Nc2ccccc2C(=O)O)c1C [Mefenamic acid]	1.2 ± 0.07
CCC1(c2ccccc2)C(=O)NCNC1=O [Primidone]	1.32 ± 0.12
CC(C)OC(=O)C(C)(C)Oc1ccc(C(=O)c2ccc(Cl)cc2)cc1 [Fenofibrate]	1.46 ± 0.11
CC(=O)OCC(=O)[C@@]12OC(C)(C)O[C@@H]1C[C@H]1[C@@H]3C[C@H](F)C4=CC(=O)C=C[C@]4(C)[C@@]3(F)[C@@H](O)C[C@@]12C [Fluocinolone acetonide 21-acetate]	1.22 ± 0.022
CCN(CC)CCOC(=O)C1(C2CCCCC2)CCCCC1 [Dicyclomine hydrochloride]	2.48 ± 0.13
CCCC(=O)Nc1ccc(OCC(O)CNC(C)C)c(C(C)=O)c1 (configuration not stated) [Acebutolol hydrochloride]	0.905 ± 0.16
CN1CCN(CCCN2c3ccccc3Sc3ccc(Cl)cc32)CC1 [Prochlorperazine maleate]	0.0177 ± 0.018
CO/N=C(\C(=O)N[C@@H]1C(=O)N2C(C(=O)O)=C(COC(C)=O)CS[C@H]12)c1csc(N)n1 [Cefotaxime sodium]	1.45 ± 0.12
CC(C)C(=O)Nc1ccc([N+](=O)[O-])c(C(F)(F)F)c1 [Flutamide]	1.16 ± 0.056
Clc1ccc(CO/N=C(\Cn2ccnc2)c2ccc(Cl)cc2Cl)c(Cl)c1 [Oxiconazole nitrate]	0.294 ± 0.089
CC1Cc2ccccc2N1NC(=O)c1ccc(Cl)c(S(N)(=O)=O)c1 (configuration not stated) [Indapamide]	1.19 ± 0.065
C[C@@H]1C/C=C/C=C/C=C/C=C/[C@H](O[C@@H]2O[C@H](C)[C@@H](O)[C@H](N)[C@@H]2O)C[C@@H]2O[C@](O)(C[C@@H](O)C[C@H]3O[C@@H]3/C=C/C(=O)O1)C[C@H](O)[C@H]2C(=O)O [Natamycin]	1.58 ± 0.13
